PMC10668032
This is one part of the list. At the low end of the ranking, values are background and their order means little.

Molecular target: SIX1-Q177R homeodomain (UniProt Q15475)
Experiment: universal protein binding microarray
Conditions: Universal all-10-mer PBM (8x60K, AMADID 030236), 300 nM GST-tagged protein, Alexa Fluor 488 anti-GST; buffer, salt, pH and temperature not stated; high values mean tight binding; most listed sequences are background and not binding sites; double strand, one strand shown

Sequence | binding signal [E-score]
CCTGAAAA | 0.00726
AATGAATA | -0.0996
CAGGCTGG | -0.0894
AACATGGC | -0.315
ATGGGGTA | 0.222
CTCCACAC | 0.251
CTCAGGGA | -0.0244
AAAGACCT | -0.435
ATATACAG | 0.000785
GTCCCTTA | 0.227
CCAGGACC | 0.0683
CGTCGAGA | -0.0364
AGGGTATA | 0.199
CCTGTAGA | -0.0621
ACTACCTG | -0.00393
CGTGTCAC | 0.462
ACGTTTTC | -0.191
CAACACAG | 0.0708
GTCGGGAA | 0.0283
AGGTTAGG | -0.0229
AGCCGATG | -0.112
ACTCAGCC | -0.248

Sequence | binding signal [E-score]
AGGGTGCA | 0.265
CTTACTTC | -0.124
AACGATAT | -0.203
CCTAGACC | -0.106
ATCGCTCA | -0.135
ACCTAGAA | -0.0478
CGCGCGTA | 0.0597
ACCATGGT | 0.2
CTTCTGAA | -0.107
TGATCCCA | 0.136
ACCAGAGC | -0.0877
AATTCGAG | -0.167
CCTACGAG | -0.0664
CTAGGTGC | 0.0867
CGATTGTA | -0.161
AACCATGC | -0.0021
AACATATA | -0.107
AACTAACG | -0.159
AGGGTTGA | 0.00129
CCGACCTA | -0.0321
TATGGAAA | -0.155
GTGGGGGA | 0.0777

Sequence | binding signal [E-score]
GCCTATAC | -0.218
GCGGGCGA | 0.0236
CATTCATC | -0.175
ACCGTTCC | 0.0464
CTGCATGC | -0.0971
AACTTTAG | -0.304
CAATTCAC | 0.0221
CGCCCCAC | 0.0981
TCGAGCGA | -0.151
GAGTCCCA | -0.147
AGATGTAC | -0.194
ATCGGTCC | -0.187
ACGTAATC | 0.186
AAAGTTGC | -0.257
TGCTACCA | -0.0856
CGATGTGA | -0.000615
AACCTCTT | 0.00894
CTAGAATA | -0.00679
AGATCAGA | -0.158
GAGAACGA | -0.203
GAGTTAAC | 0.171
AAGCTCAA | -0.208

Sequence | binding signal [E-score]
GAGCGCGA | -0.0358
TTAGACAA | -0.0279
TAGCTAAA | -0.169
ACGGAAAT | -0.102
CCAAAAGG | -0.128
CGTATCTA | -0.0685
AAATTCAA | -0.181
AATATTCG | -0.105
CTATGAAA | -0.128
AAAACGAG | -0.115
CGTTGAGA | -0.14
CGAACTTA | -0.137
AGCGATAT | -0.199
TAATGCGA | -0.0147
CATGGACG | -0.199
GTGGCCCA | -0.225
CCTGTCCG | 0.0431
CACGGACG | 0.0717
CGTCTGTC | -0.126
GATTTAAC | -0.0534
